± gives the standard deviation of the averaged measurements. Some of the results follow.
system: PfAP2-EXP AP2 domain (GST-tagged); test: gcPBM binding intensity (ln(normalized median fluorescence intensity)); higher = stronger DNA binding
Method in brief: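 GST-tagged P. falciparum DNA-binding domains produced in E. coli were incubated for 1 h on an Agilent 4 × 180k array of primer-extended double-stranded 36-bp intergenic genomic probes with negative controls. Binding intensity is the highest Masliner-normalised natural-log median intensity across replicate spots of either probe orientation, with bound protein detected by Alexa488 anti-GST antibody at 488 nm.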

| Sequence | gcPBM binding intensity (ln) |
| --- | --- |
| ATACATAAATTTTGTACACACAAAAAAAAAAAAGCT [CACACA_site1351] | 8.7 ± 0.45 |
| AAAATATACATATATGCATGCATATAAATAAAAAAA [TGCATGCA_site812] | 9.81 ± 0.11 |
| GATAAAACGTTATGCACACGTACGTGAGTATTTATA [CACACA_site1570] | 8.85 ± 0.13 |
| AACAAAACTTTGGATACATGCAAAATTTTTAAATGA [TGCATGCA_site249] | 8.61 ± 0.39 |
| AATGATAAATAAAAAGCATGCAACAAATAAAAATAA [TGCATGCA_site453] | 9.84 ± 0.22 |
| GTTTTTTTGTTTTAAAGTACTTAAAAAAAAAATATA [XGTACX_site6998] | 8.44 ± 0.35 |
| CTTTTATAATTCATATGTACTTATTTTTAACATAGG [XGTACX_site7808] | 8.71 ± 0.42 |
| TGTACATATATATATATATATGTTACTGAAATAAAA [CACACA_negctrl_site1658] | 8.51 ± 0.28 |
| AAGAATAACTTTTATACATGCAGCATAATATATTGT [TGCATGCA_site605] | 8.9 ± 0.19 |
| GGTATACACAAGTATACACACATATAAATATAAATA [CACACA_site7511] | 8.5 ± 0.45 |
| TCTTTTAACACATGTGATATTATTTAATAACAATAA [CACACA_negctrl_site339] | 8.48 ± 0.43 |
| AATAACCACAGACACACACACATATAAATATAAATA [CACACA_site7631] | 8.64 ± 0.46 |
| ATATATATGTATACATGTACATATTTTATTATGTGC [XGTACX_site7207] | 8.64 ± 0.15 |
| GTGATTAATATATACACACATACATATATATATATA [CACACA_site2817] | 10 ± 0.35 |
| AAAAGTAAAAAAAAAAAAAGTAAAAAAAAAAAAAAA [CACACA_negctrl_site389] | 8.21 ± 0.43 |
| TTACAGATATTTATCTGTACATATATTTAAAAATAT [XGTACX_site7431] | 8.26 ± 0.25 |
| TAATTTTTTTAAAAGCGTACATTTAAAAAAAAATAT [XGTACX_site2736] | 8.37 ± 0.27 |
| TTTTTAAATTCTTTAATATGTTTTATATATCAAAAT [CACACA_negctrl_site75] | 8.08 ± 0.34 |
| TCTTATCATTTTAAATCACACACATATATATATATA [CACACA_site8925] | 10.2 ± 0.16 |
| TTATTTTATTTAGGGTGTACCCAATTTTTCCATATG [XGTACX_site4957] | 8.66 ± 0.36 |
| ACTGTAATATTGAAAGTGCATTAAAGTGTATATTAT [GTGCAC_site9970] | 8.94 ± 0.11 |
| AAAAATTTTTTACATCGTACAGATATATATAATAAA [XGTACX_site3331] | 8.66 ± 0.41 |

| Sequence | gcPBM binding intensity (ln) |
| --- | --- |
| TCCTATAATTTTTTAATCAAAATATTTTATCCTTTG [CACACA_negctrl_site793] | 8.39 ± 0.36 |
| ATTTATATTTATAAATGTACACATATATATTTCATT [XGTACX_site2723] | 8.48 ± 0.32 |
| TGTATATTTGATTCATGTACATATTTTATTTTAACT [XGTACX_site5169] | 8.78 ± 0.23 |
| CCTATATAATTATAATGTACTTGTAAAAAATATAAC [XGTACX_site2864] | 8.7 ± 0.4 |
| CAGATTTATTCAAACGCATGCTGTTTTAAAATAAAA [TGCATGCA_site874] | 8.65 ± 0.47 |
| AAATATAAAAAATATACACACATATATAATATATAT [CACACA_site2963] | 8.41 ± 0.33 |
| TAAGACTATTAAAAAATTGAGTACATGAACTGTTCA [GTGCAC_negctrl_site670] | 8.28 ± 0.31 |
| TTTAAAATATTAAAATGTACATATATATATATATAT [XGTACX_site6784] | 10.1 ± 0.3 |
| ATCCGCTGCCTTTTGGTGCAGAACATAATCATGTAA | 8.54 ± 0.19 |
| ACATAAATATATTTTTCACACATCCTTAGTTATGAA [CACACA_site5179] | 8.68 ± 0.49 |
| TATATATATATATATACACACATACATATATATATT [CACACA_site8185] | 10.1 ± 0.4 |
| AATGTATTTAAACTGACACACAAAAAAAATAAAATA [CACACA_site2138] | 8.75 ± 0.51 |
| ATATTGTAAGTAAACACACACACATCTATAGGTATA [CACACA_site6462] | 8.7 ± 0.56 |
| ATTATACATATGTATGCACACATACATACACATATA [CACACA_site9155] | 8.66 ± 0.3 |
| AATAGTAAAAGATATACACACACCAAAAAATAGAAT [CACACA_site2289] | 9.15 ± 0.46 |
| TAATTTAAGAAAAAATGTACACAAATATAATAATAG [XGTACX_site8317] | 8.83 ± 0.34 |
| ATATATATATGTTTATGTACTTATAATAATATAACT [XGTACX_site4828] | 9.47 ± 0.085 |
| ATACATATATGTGTGTGTACATAAATGTATATATTT [XGTACX_site6242] | 8.53 ± 0.26 |
| AACTTTATTCCTAATTGTACACATATATATATATAT [XGTACX_site6823] | 10.2 ± 0.16 |
| GTATCTTTCAAAATATGTACATATATATATGTGTGT [XGTACX_site3512] | 8.91 ± 0.35 |
| GCATGGAACCATATATGTACATATATAAATAAATAA [XGTACX_site4996] | 8.79 ± 0.47 |
| CGTATAACATATGACACACACACATACATACACAAA [CACACA_site1803] | 8.74 ± 0.49 |

Reference: the supplement of paper PMC11417369
